Measured values taken from article PMC4336329 (PLoS ONE, 2015).
The whole screen tested about 310,000 compounds, of which about 14,000 (4.5%) showed an effect of 50% or more. Effects have a minus sign here. The list shows a part of the results.

Each molecule was assayed against human ether-à-go-go-related gene (hERG) potassium channel (human, UniProt Q12809) (assay: primary screen, population patch clamp on CHO cells stably expressing hERG).
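Further: peak tail current of the secondary pulse compared with the same well before compound.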

Chain of human ether-à-go-go-related gene (hERG) potassium channel (Q12809 whole entry, looked up): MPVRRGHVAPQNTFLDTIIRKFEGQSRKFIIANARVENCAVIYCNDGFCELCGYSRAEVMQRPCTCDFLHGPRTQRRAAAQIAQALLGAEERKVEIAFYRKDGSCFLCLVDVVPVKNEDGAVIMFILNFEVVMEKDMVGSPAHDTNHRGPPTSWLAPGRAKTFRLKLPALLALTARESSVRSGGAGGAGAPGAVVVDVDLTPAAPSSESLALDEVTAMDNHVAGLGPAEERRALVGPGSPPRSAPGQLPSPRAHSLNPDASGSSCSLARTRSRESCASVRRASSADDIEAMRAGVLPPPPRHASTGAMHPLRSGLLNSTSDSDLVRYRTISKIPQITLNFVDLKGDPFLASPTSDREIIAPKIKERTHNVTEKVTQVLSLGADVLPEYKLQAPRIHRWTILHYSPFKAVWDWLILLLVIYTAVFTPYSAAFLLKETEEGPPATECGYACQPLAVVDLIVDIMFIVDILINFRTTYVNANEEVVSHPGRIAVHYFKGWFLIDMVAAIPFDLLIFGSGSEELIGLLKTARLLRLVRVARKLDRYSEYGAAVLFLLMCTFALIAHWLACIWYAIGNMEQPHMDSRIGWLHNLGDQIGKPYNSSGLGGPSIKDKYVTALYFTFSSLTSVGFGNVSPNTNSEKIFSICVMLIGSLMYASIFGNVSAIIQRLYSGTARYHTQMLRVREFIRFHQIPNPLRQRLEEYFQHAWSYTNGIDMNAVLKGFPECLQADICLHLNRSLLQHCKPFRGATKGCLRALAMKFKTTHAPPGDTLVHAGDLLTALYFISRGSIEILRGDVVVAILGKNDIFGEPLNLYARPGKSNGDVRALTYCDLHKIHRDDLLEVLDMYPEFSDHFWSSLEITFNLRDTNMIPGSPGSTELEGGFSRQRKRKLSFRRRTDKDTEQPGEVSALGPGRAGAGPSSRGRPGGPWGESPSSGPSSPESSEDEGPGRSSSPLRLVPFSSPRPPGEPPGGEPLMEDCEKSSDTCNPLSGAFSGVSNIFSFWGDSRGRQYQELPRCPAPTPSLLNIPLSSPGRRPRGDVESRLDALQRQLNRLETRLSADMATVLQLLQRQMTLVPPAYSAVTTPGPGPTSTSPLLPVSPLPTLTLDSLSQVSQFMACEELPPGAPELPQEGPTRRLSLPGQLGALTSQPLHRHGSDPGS

Structure (SMILES)	hERG current change (%, negative = inhibition) at 10uM
Cc1ccc(C)n1NC(=O)c1ccc(Cl)cc1	-8.87%
CC(C)NC(=O)/C=C/C(=O)O	3.23%
CCn1c(SCC(=O)NC2CCCCC2)nc2ccccc2c1=O	-7.95%
CCC(=O)Nc1ccc2nc(C3CC3)n(Cc3ccc(C(C)(C)C)cc3)c(=O)c2c1	9.1%
CCN1C(=NCCc2ccccn2)N[C@@H](c2cccc(F)c2)C(C(=O)OC)=C1C	-56.7%
COC(=O)c1cc(S(=O)(=O)N(Cc2ccccc2)C(C)(C)C)c[nH]1	-7.09%
CCSc1nnc(NC(=O)/C=C/c2ccc3c(c2)OCO3)s1	30.2%
Cc1nc(NC(=O)c2ccc(Cl)cc2)nc2cc3c(cc12)OCO3	1.55%
Cc1nnsc1C(=O)NNC(=O)c1cccc2ccccc12	6.04%
Nn1c(-c2cccc(Br)c2)n[nH]c1=S	11%
CCOc1ccccc1Nc1ccc(C(=O)O)cc1N	-5.76%
Cn1nc(C(F)(F)F)cc1-c1ccc(S(N)(=O)=O)s1	1.59%
CCOC(=O)CSc1nc(C)c(C(C)=O)cc1C#N	-5.39%
CCCCn1c(=O)c(C(=O)Nc2ccccc2N)c(O)c2ccccc21	16.3%
CCC1CCCCN1CC(=O)c1ccc(OC(F)F)cc1 (centres unmarked)	-77.7%
Cn1c(=O)c2c([nH]c(OCc3ccc(Cl)cc3Cl)[n+]2Cc2ccc(F)cc2)n(C)c1=O	11.6%
CC(Oc1ccc(F)cc1)C(=O)NN (centres unmarked)	18.6%
Cc1ccc2nc(Cl)nc(-c3ccccc3)c2c1	0.821%
N/C(Cc1ccc(Cl)cc1Cl)=N\OC(=O)c1cccs1	1.97%
O=C(CCN1CCN(c2ccc(F)cc2)CC1)Nc1ccc(F)cc1	-56.8%
CCCCNCC1CCCO1 (centres unmarked)	17.4%
O=C(O)c1cccnc1SC1CC(=O)N(c2cccc3ccccc23)C1=O (centres unmarked)	17.4%

Structure (SMILES)	hERG current change (%, negative = inhibition) at 10uM
CC(C)[C@H](NC(=O)[C@H](Cc1ccccc1)n1c(=O)[nH]c2ccccc2c1=O)C(=O)N[C@@H](Cc1ccccc1)C(=O)O	12.5%
Cc1cc(NC(=O)COC(=O)c2c(C)nn(-c3ccccc3)c2C)no1	13.7%
O=S(=O)(c1ccc(F)c(F)c1)N1CCC2(CC1)OCCO2	7.51%
COc1ccccc1N1CCN(C(=O)c2ccc(NC(C)=O)cc2)CC1	2.46%
O=C(COC(=O)CCNS(=O)(=O)c1cccs1)Nc1ccccc1	-5.63%
Cc1cc(NC(=O)CCCn2nc(C)c([N+](=O)[O-])c2C)no1	14.4%
CCN(CC)CCNC(=O)c1ccc(NC(=O)c2cn(-c3ccccc3)nc2-c2cccs2)cc1	-32.7%
Cc1nn(C(C)(C)C)c(OC(=O)c2ccc(Br)o2)c1Sc1ccccc1	1.31%
COc1ccc(OC)c2[nH]c(=O)c(CCNC(=O)COc3ccccc3)cc12	-17.5%
O=C(Nc1ccccc1N1CCOCC1)c1ccc(N2CCOCC2)c([N+](=O)[O-])c1	-20.7%
O=C(NC1CCN(Cc2ccccc2)CC1)C1CCN(S(=O)(=O)c2cccc([N+](=O)[O-])c2)CC1	-8.03%
Cc1c(C)c2ccc(O[C@@H]3O[C@H](CO)[C@H](O)[C@H](O)[C@H]3O)cc2oc1=O	15.8%
CC(C)(C)C(=O)Cn1ncc(N2CCOCC2)c(Cl)c1=O	-71.9%
O=C(COc1ncnc2ccccc12)N1CCN(C(=O)c2ccco2)CC1	-2.22%
CCN(CC)c1ccc(C(=O)OCC(=O)NC(C)(C)C)cc1	-0.0611%
COc1ccc(OCC(=O)N2CCCC(CO)(CCOc3ccccc3)C2)cc1 (centres unmarked)	-46.8%
CCc1ccc(/C=C2\SC(=S)N(CCC(=O)N3CCN(C)CC3)C2=O)cc1	13.8%
COc1ccccc1Nc1nc(NCC2CCCO2)c2ccccc2n1.Cl (centres unmarked)	-59.6%
Cc1cc(Cl)ccc1C(=O)C1CCCN(C(=O)CCN2CCCO2)C1 (centres unmarked)	-1.54%
CCCNc1nc2c(c(=O)[nH]c(=O)n2C)n1CCOc1ccccc1	-39.8%
CCCCN(CCCC)NC(=O)c1ccccc1	5.03%
COc1ccccc1OC(=O)c1ccc(C)c(S(=O)(=O)N2CCOCC2)c1	-24%

Structure (SMILES)	hERG current change (%, negative = inhibition) at 10uM
O=C(O)c1ccc(N2C(=O)CC(N3CCN(c4cccc(Cl)c4)CC3)C2=O)cc1 (centres unmarked)	-0.425%
Cc1nn(CC(=O)N2N=C(C(F)F)CC2(O)C(F)F)c(C)c1[N+](=O)[O-] (centres unmarked)	4.07%
Cc1ccccc1-n1ncc2c1CC(C)(C)CC2NC(=O)C1=CC(=O)CC(C)(C)O1 (centres unmarked)	-4.61%
CCOC(=O)N1CCN(C2CCCN(C(=O)c3ccccc3SC)C2)CC1 (centres unmarked)	12.6%
CSC(=O)CC(=O)NC(=O)c1ccccc1	2.41%
CCOC(=O)c1nc(Nc2ccc(C)cc2)c2ccccc2n1	-38.3%
Cc1ccc(S(=O)(=O)N2CCN(c3ncnc4scc(-c5ccc(F)cc5)c34)CC2)cc1	14.6%
CCn1c(C(=O)N2CCCC(C(=O)O)C2)cc2sccc21 (centres unmarked)	14.4%
COC(=O)Cc1c(C)nc2nc(-c3ccco3)[nH]n2c1=O	-3.26%
COc1ccc(CCN(C)C(=O)c2ccc(C)c(S(=O)(=O)N3CCCCC3)c2)cc1OC	-20.9%
CCC/C=N/NC(=O)c1ccccc1O	20.8%
Nc1cccc(O)c1	17.8%
COc1ccc(N=Nc2cnc(C)nc2-c2ccccc2)cc1	10.6%
COC(=O)c1c(NC(=O)COC(=O)[C@@H](NS(=O)(=O)c2cccc(Cl)c2)C(C)C)sc2c1CCC2	3.75%
O=C(Nc1nc2ccccc2n1CCN1CCCCC1)c1ccc(Cl)cc1	-13.2%
Cc1ccc(CN2CCCN(Cc3ccc(F)cc3Cl)S2(=O)=O)cc1	11.7%
O=C(CCN1CCN(c2ccccc2F)CC1)Nc1ccccc1Cl	-2.49%
O=C(NCCc1ccccc1)C1CCN(S(=O)(=O)c2ccc(-n3cnnn3)cc2)CC1	-66.3%
CCOc1ccc(C(=O)Nc2nc(C)cc(C)n2)cc1[N+](=O)[O-]	-49.6%
O=C(CN(c1ccc(Br)cc1)S(=O)(=O)c1ccc(Cl)c([N+](=O)[O-])c1)NCCc1ccccc1	29.4%
COC(=O)c1cc(C#N)c(SCc2ccccc2)nc1C	11.8%
CCN(CCNC(=O)CS(=O)(=O)Cc1nc(-c2cccc(OC)c2)oc1C)c1ccccc1	1.04%

Structure (SMILES)	hERG current change (%, negative = inhibition) at 10uM
COc1c(O)cccc1[C@@H](O)C1CCN(CCc2ccc(F)cc2)CC1	-55.8%
CNc1cnn(-c2ccc(C)cc2)c(=O)c1Sc1ccc(C)cc1	-8.7%
Cc1ccc(S(=O)(=O)/N=C(\N)Nc2nc(C)c3cc(C)c(C)cc3n2)cc1	-13.6%
CCNc1nc(NCC)nc(SCC(C)=O)n1	34.8%
COc1ccc(/C=N/Nc2cc(C)nc(N3CCOCC3)n2)cc1OC	-0.783%
Cc1ccc(C(=O)N/N=C\c2cc3c(cc2Br)OCO3)s1	6.19%
CCn1nnnc1NCc1c(OC)ccc2ccccc12	0.28%
COc1ccc(Br)cc1/C=N/NC(=O)c1cccnc1	-8.41%
Cc1cc(S(=O)(=O)N(Cc2ccccc2)Cc2ccc(N(C)C)cc2)ccc1-n1cnnn1	-7.77%
CC(=O)Nc1ccc(N(C(=O)Cc2c[nH]c3ccccc23)C(C(=O)NC2CCCCC2)c2ccco2)cc1 (centres unmarked)	-13.1%
CCOc1cc(-c2sc(Nc3ccccc3)n[n+]2-c2ccc(F)cc2)ccc1OC.[Cl-]	23.6%
CC(C)(C)NC(=O)[C@@H]1CN(Cc2cccnc2)CCN1C[C@@H](O)C[C@@H](Cc1ccccc1)C(=O)N[C@H]1c2ccccc2C[C@H]1O.O=S(=O)(O)O	-6.83%
O=C(c1ccc(Cn2c(=O)[nH]c3ccccc3c2=O)cc1)N1CCN(c2ccccn2)CC1	0.196%
Cl.Cn1nnnc1SCCNCc1ccncc1	0.895%
Cc1ccc(S(=O)(=O)N(C)CCCC(=O)Nc2ccc(C)cc2C)cc1	-33.8%
CCNc1nnc(SCC(=O)c2c(N)n(C3CC3)c(=O)[nH]c2=O)s1	10.7%
COc1cc2c(cc1OC)C(C(=O)NCc1cccnc1)C(c1cccnc1)N(C)C2=O (centres unmarked)	9.05%
O=C(Nc1nnc(-c2ccco2)s1)C1CC1	-10.2%
CC1(C)CC(=O)C(C=NCC2CCN(C(=S)Nc3ccccc3)CC2)=C(O)C1	-3.98%
C#CCOCCOCCOCCNc1nc(N2CCN(C(=O)[C@H]([C@@H](C)CC)n3cc([C@@H](N)Cc4ccc(O)cc4)nn3)CC2)nc(N2CCN(C(=O)[C@H](Cc3ccc(O)cc3)n3cc([C@@H](N)C(C)CC)nn3)CC2)n1.Cl (some centres unmarked)	-4.47%
